# Laboratory results as given in PubChem BioAssay AID485294 (National Center for Advancing Translational Sciences (NCATS), 2010).
# Screen size: about 370,000 compounds; about 150 (0.041%) were called active. Inconclusive results, whose numbers are uncertain, are shown with a selection of clear calls. The call rests on the fitted dose curve; in most records, active means well fitted inhibition curve with a large enough effect; inconclusive means small, poorly fitted or top-dose-only effect; inactive means flat fitted curve, though single readings scatter. No potency is given beside an inconclusive call; the fits are too rough.
# Molecular target: Beta-lactamase (Escherichia coli (strain K12)) (UniProt P00811)
# Assay: qHTS Inhibitors of AmpC Beta-Lactamase (assay with detergent); further: nearly all actives have a fitted effect of over 25% in size;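 on activity change, negative = inhibition: 0% = no-compound wells and -100% = no-enzyme wells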
# Settings: AmpC hydrolysis of nitrocefin, absorbance 480 nm, 0.01% Triton; activity change, negative = inhibition: at 114 µM (top of the series)
# In short: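 AmpC (5.3 nM in the dispensed reagent) in 20 mM phosphate pH 7.0 with 0.01% (detergent screen) or 0.0001% Triton X-100 was preincubated with compounds for 15 min at room temperature. Nitrocefin was then added from an 800 uM solution, and hydrolysis was followed at 480 nm.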
# Potency means the concentration at half of the fitted maximal effect; tags describe the fitted curve by direction and shape.
# Sequence of UniProt P00811 (P00811 whole entry, looked up): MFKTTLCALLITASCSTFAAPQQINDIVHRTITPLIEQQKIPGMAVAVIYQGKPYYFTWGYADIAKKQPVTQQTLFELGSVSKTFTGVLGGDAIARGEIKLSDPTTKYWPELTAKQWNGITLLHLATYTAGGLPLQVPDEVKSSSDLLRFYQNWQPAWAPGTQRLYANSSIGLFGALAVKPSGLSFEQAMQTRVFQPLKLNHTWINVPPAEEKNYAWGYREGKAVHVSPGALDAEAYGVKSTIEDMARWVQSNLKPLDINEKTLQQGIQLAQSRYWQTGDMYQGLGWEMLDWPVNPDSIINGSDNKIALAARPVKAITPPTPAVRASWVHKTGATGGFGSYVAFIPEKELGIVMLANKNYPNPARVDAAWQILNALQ
Structure (SMILES),Potency,"activity change, negative = inhibition"
CCOC(=O)c1[nH]c(C)c(C(=O)NCc2ccc(C)cc2)c1C,"inconclusive [inhibitor, full curve, poor fit]",–
Cc1ccc(S(=O)(=O)n2nc(C)c(S(=O)(=O)N3CCOCC3)c2C)cc1,"inconclusive [inhibitor, full curve, poor fit]",–
O=C(Nc1ccncc1)Nc1ccc(Br)cc1Cl,"inconclusive [inhibitor, full curve]",–
CC(C)N1CC(O)=C(c2nc3ccccc3[nH]2)C1=N,"inconclusive [inhibitor, full curve, poor fit]",–
Cc1nc(Cl)c2c(n1)N(CC(N)=O)C(=O)CO2,"inconclusive [inhibitor, partial curve]",–
O=C(O)Cc1sc(Nc2ccccc2)nc1-c1ccc(Cl)cc1,–,inactive: -0.447%
COc1ccc(-n2nc(C(=O)NCC(=O)NC3CCCCC3)c3ccccc3c2=O)c(OC)c1,"inconclusive [inhibitor, full curve, poor fit]",–
CC(OC(=O)c1ccccn1)C(=O)Nc1ccc2c(c1)OCCO2 (stereo unspecified),"inconclusive [inhibitor, full curve]",–
CC(=O)c1cc(C(=O)Nc2ccccc2C(=O)O)oc1C,"inconclusive [inhibitor, partial curve, poor fit]",–
O=C(c1ccncc1)c1ccc(NC(=O)c2cccs2)cc1,–,inactive: 1.97%
O=C1CC(c2nc3ccccc3[nH]2)CN1c1ccccc1F (stereo unspecified),"inconclusive [inhibitor, full curve, poor fit]",–
COc1ccc(NC(=O)CN2C(=O)c3cccc4cccc2c34)c(OC)c1,"inconclusive [inhibitor, partial curve, poor fit]",–
Cc1cccc(C(=O)Nc2cccc(NC(=O)c3ccccc3)c2)c1,–,inactive: 2.7%
CCCCCOC(=O)C1=C(C)NC(=O)NC1c1ccc2c(c1)OCO2 (stereo unspecified),"inconclusive [inhibitor, full curve, poor fit]",–
Cc1ccc(C(=O)NCCC(=O)NCc2ccco2)cc1,"inconclusive [inhibitor, partial curve]",–
COCC[N+]1(C)CCCCC1,"inconclusive [inhibitor, full curve]",–
C[C@H]1CC[C@H]2C(=O)N[C@H](Cc3ccccc3)C(=O)N2[C@@H]1c1ccccc1,"inconclusive [inhibitor, partial curve, poor fit]",–
Cc1cccc(NC(=S)c2nc3ccccc3s2)c1,"inconclusive [inhibitor, full curve, poor fit]",–
Cc1ccc(NC(=O)CSc2nnc([C@@H](N)Cc3c[nH]c4ccccc34)o2)c(C)c1,–,inactive: 11.2%
Cc1ccc(Nc2ncccc2C(N)=O)cc1,"inconclusive [inhibitor, full curve, poor fit]",–
C=CCNC(=O)/C(C#N)=C/c1c(C)nn(-c2ccccc2)c1Cl,"inconclusive [inhibitor, full curve, poor fit]",–

Structure (SMILES),Potency,"activity change, negative = inhibition"
CCCCOc1c(C(=O)Nc2ccccc2)nnn1-c1ccccc1,"inconclusive [inhibitor, partial curve]",–
Cc1ccc(S(=O)(=O)N(C)C)cc1NC(=O)COC(=O)Cc1ccccc1F,"inconclusive [inhibitor, partial curve, poor fit]",–
CCCOc1ccc(CNC(=O)CCCn2ncn3c(cc4sc(CC)cc43)c2=O)cc1,–,inactive: 17.4%
Cc1nc(Nc2cnc(/C=C/c3cc(C(=O)Nc4cccc(C(F)(F)F)c4)ccc3C)cn2)cc(N2CCNCC2)n1,"inconclusive [inhibitor, full curve, poor fit]",–
CSc1ncccc1C(=O)NCC(c1cccs1)N1CCOCC1 (stereo unspecified),"inconclusive [inhibitor, full curve]",–
O=C(O)C(c1ccccc1)N1C(=O)/C(=C\c2ccc(-c3ccccc3Cl)o2)SC1=S (stereo unspecified),"inconclusive [inhibitor, partial curve]",–
CC(C)(C)C(=O)CSc1nccc(=O)[nH]1,–,inactive: -11.2%
CC(C)C[C@@]12C(=O)N(c3cccc(Br)c3)C(=O)N1[C@H](c1ccc(Cl)cc1)[C@@H]1C(=O)N(C3CCCCC3)C(=O)[C@@H]12,"inconclusive [inhibitor, full curve, poor fit]",–
COc1ccc(Nc2nc(N)nc(CN3CCC(C)CC3)n2)cc1,–,inactive: -0.628%
COc1ccc(NC(=O)C2CCCN(S(C)(=O)=O)C2)cc1Cl (stereo unspecified),"inconclusive [inhibitor, full curve, poor fit]",–
CCn1cc(C(=O)NC(C)CCc2ccccc2)c(=O)c2cc(S(=O)(=O)N(C)C)ccc21 (stereo unspecified),–,inactive: 1.07%
Cc1ccc(-n2c3c(cc(C(=O)Nc4ccccc4C(N)=O)c2=O)C(=O)CC(C)(C)C3)cc1,–,inactive: -0.263%
Cc1[nH]c2ccccc2c1C(=O)CN1C(=O)NC2(CCCCCC2)C1=O,"inconclusive [inhibitor, full curve, poor fit]",–
Cc1cccc(N2C(=O)CC(N(O)c3ccccc3)C2=O)c1 (stereo unspecified),"inconclusive [inhibitor, partial curve]",–
COc1ccc(OC)c(N2C(=O)[C@@H]3C(c4ccccc4Cl)=NO[C@@H]3C2=O)c1,"inconclusive [inhibitor, full curve, poor fit]",–
CCOc1ccc(/C=C/C(=O)OC(C)C(=O)NC2CCCCC2C)cc1OC (stereo unspecified),"inconclusive [inhibitor, full curve, poor fit]",–
Cc1ccccc1Cn1cc(S(=O)(=O)CC(=O)Nc2nccs2)c2ccccc21,–,inactive: 1.25%
COc1ccc(C(=O)NNC2CC(=O)N(Cc3ccc(Cl)cc3)C2=O)cc1OC (stereo unspecified),"inconclusive [inhibitor, single point]",–
Cc1cc(-c2n[nH]c(=S)n2/N=C/C=C/c2ccccc2)n[nH]1,"inconclusive [inhibitor, partial curve]",–
Cc1ccc(S(=O)(=O)N(Cc2ccccc2)c2ccccc2C(=O)NCc2ccco2)cc1,–,inactive: 2.73%
